Patent US4022884A, “Gardimycin and process for producing same” (Gruppo Lepetit S.p.A., priority 1974, dated 1977)

Test: Partition coefficient, countercurrent extraction solvent system
Details: butanol:sodium-potassiumphosphate buffer M/15 pH 7.2:hexane 1:1:0.1

Substance: gardimycin
- partition coefficient: 0.8
